Experimental data reported in PubChem BioAssay (NCI).
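Growth conditions: 96-well plates. Treatment: test compound, 48 hours, 5 concentrations. Analysis: linear interpolation between bracketing concentrations; unreached endpoints set to highest concentration. Here, GI50 denotes the concentration required for 50% inhibition of growth. TGI is the concentration that stops growth completely.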

Tested on: NCI-H322M lung
Assay: NCI anticancer screen, dose series, 48 h

O=C(NCCCNc1cc(-c2cn(-c3ccccc3)nc2-c2cccc(O)c2)ccn1)Nc1cccc(C(F)(F)F)c1
GI50: 4.24 µM
TGI: 9.32 µM
